According to the supplement of paper PMC4604168 (melanoma cell lines):
Some of the results follow. Single values are uncertain, as repeats are few or missing.

system: WM3526; assay: cell count relative to DMSO control; melanoma cells; higher = more viable cells; settings: library dose: low library concentration; 72 h
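Note: cell number obtained by counting DAPI-stained nuclei in high-throughput microscope images with image analysis software, screen run in 1,536-well plates.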

Row | Compound | cell count [%]
1 | CC(=O)c1c(C)c2cnc(Nc3ccc(N4CCNCC4)cn3)nc2n(C2CCCC2)c1=O [palbociclib] + Cn1c(Nc2ccc(C(F)(F)F)cc2)nc2cc(Oc3ccnc(-c4ncc(C(F)(F)F)[nH]4)c3)ccc21 [CHIR265] (first compound 0.04 µM, partner dose 0.08 µM) | 46.4
2 | CC(=O)O[C@@]12CO[C@@H]1C[C@H](O)[C@@]1(C)C(=O)[C@H](O)C3=C(C)[C@@H](OC(=O)[C@H](O)[C@@H](NC(=O)OC(C)(C)C)c4ccccc4)C[C@@](O)([C@@H](OC(=O)c4ccccc4)[C@H]21)C3(C)C [Docetaxel] + NCC(=O)Nc1ccc(-n2nc(C(F)(F)F)cc2-c2ccc3c(ccc4ccccc43)c2)cc1 [OSU03012] (first compound 0.0001 µM, partner dose 1 µM) | 46.7
3 | CC(=O)O[C@@]12CO[C@@H]1C[C@H](O)[C@@]1(C)C(=O)[C@H](O)C3=C(C)[C@@H](OC(=O)[C@H](O)[C@@H](NC(=O)OC(C)(C)C)c4ccccc4)C[C@@](O)([C@@H](OC(=O)c4ccccc4)[C@H]21)C3(C)C [Docetaxel] + CC(=O)c1c(C)c2cnc(Nc3ccc(N4CCNCC4)cn3)nc2n(C2CCCC2)c1=O [palbociclib] (first compound 0.0001 µM, partner dose 0.04 µM) | 42
4 | CC(=O)c1c(C)c2cnc(Nc3ccc(N4CCNCC4)cn3)nc2n(C2CCCC2)c1=O [palbociclib] + O=S(=O)(c1ccccc1)N(CC(F)(F)F)c1ccc(C(O)(C(F)(F)F)C(F)(F)F)cc1 [T0901317] (first compound 0.04 µM, partner dose 1.4 µM) | 92.9
5 | Nc1ccn([C@@H]2O[C@H](CO)[C@@H](O)C2(F)F)c(=O)n1 [gemcitabine] + Nc1nc(F)nc2c1ncn2[C@@H]1O[C@H](CO)[C@@H](O)[C@@H]1O [fludarabine] (first compound 0.0004 µM, partner dose 0.2 µM) | 25
6 | Nc1ncn([C@H]2C[C@H](O)[C@@H](CO)O2)c(=O)n1 [decitabine] + COc1cc(N2CCC(N3CCN(C)CC3)CC2)ccc1Nc1ncc(Cl)c(Nc2ccccc2S(=O)(=O)C(C)C)n1 [NVP-TAE684] (first compound 0.1 µM, partner dose 0.08 µM) | 86.3
7 | Nc1nc(F)nc2c1ncn2[C@@H]1O[C@H](CO)[C@@H](O)[C@@H]1O [fludarabine] + COc1cc2c(Oc3ccc4[nH]c(C)cc4c3F)ncnc2cc1OCCCN1CCCC1 [cediranib] (first compound 0.2 µM, partner dose 0.4 µM) | 32.4
8 | CO[C@H]1C[C@@H]2CC[C@@H](C)[C@@](O)(O2)C(=O)C(=O)N2CCCC[C@H]2C(=O)O[C@H]([C@H](C)C[C@@H]2CC[C@@H](OCCO)[C@H](OC)C2)CC(=O)[C@H](C)/C=C(\C)[C@@H](O)[C@@H](OC)C(=O)[C@H](C)C[C@H](C)/C=C/C=C/C=C/1C [everolimus] + COc1ccc(Cl)c(Nc2nc3ccccc3nc2NS(=O)(=O)c2cccc(NC(=O)C(C)(C)N)c2)c1 [XL147] (first compound 0.02 µM, partner dose 0.8 µM) | 55.3
9 | Nc1ccn([C@@H]2O[C@H](CO)[C@@H](O)C2(F)F)c(=O)n1 [gemcitabine] + COc1cc2ncnc(Nc3ccc(Oc4ccccc4)cc3)c2cc1OC [SrcI1] (first compound 0.0004 µM, partner dose 2 µM) | 71.4
10 | CC(=O)O[C@@]12CO[C@@H]1C[C@H](O)[C@@]1(C)C(=O)[C@H](O)C3=C(C)[C@@H](OC(=O)[C@H](O)[C@@H](NC(=O)OC(C)(C)C)c4ccccc4)C[C@@](O)([C@@H](OC(=O)c4ccccc4)[C@H]21)C3(C)C [Docetaxel] + O=S(=O)(c1ccccc1)N(CC(F)(F)F)c1ccc(C(O)(C(F)(F)F)C(F)(F)F)cc1 [T0901317] (first compound 0.0001 µM, partner dose 1.4 µM) | 32.3
11 | CO[C@H]1C[C@@H]2CC[C@@H](C)[C@@](O)(O2)C(=O)C(=O)N2CCCC[C@H]2C(=O)O[C@H]([C@H](C)C[C@@H]2CC[C@@H](OCCO)[C@H](OC)C2)CC(=O)[C@H](C)/C=C(\C)[C@@H](O)[C@@H](OC)C(=O)[C@H](C)C[C@H](C)/C=C/C=C/C=C/1C [everolimus] + O=C(O)C(=O)Nc1sc2c(c1C(=O)O)CCNC2 [TCS401] (first compound 0.02 µM, partner dose 1.66667 µM) | 64.2
